{"source": "the supplement of paper PMC3334620", "note": "The full ranking holds about 33,000 sequences; the median of “E-score (-0.5 to 0.5)” is about -0.054, and the highest 2% start at about 0.39. Some of the results follow.", "data": [{"target": "Ylr278c (UniProt Q05854)", "assay": "PBM E-score (8-mer binding enrichment) (E-score (-0.5 to 0.5)); higher = stronger / more preferred TF binding; most listed sequences are background and not binding sites", "details": "protein concentration: 200 nM; construct: GST-DNA-binding domain", "in_short": "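PURExpress in vitro transcription/translation supplied GST-tagged yeast transcription factors, either full-length or DNA-binding domain. Applied at about 100-200 nM to universal all-10-mer Agilent arrays double-stranded by primer extension, the bound protein was detected with fluorescent anti-GST. E-scores, modified Wilcoxon-Mann-Whitney statistics, were given by the Universal PBM Analysis Suite to ungapped eight-base words pooled with their reverse complements after masliner normalisation.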", "values": [{"sequence": "GCAATGGA", "PBM E-score": -0.118}, {"sequence": "ACTACCGG", "PBM E-score": 0.304}, {"sequence": "AAACAAGT", "PBM E-score": -0.0893}, {"sequence": "CTGGGGCC", "PBM E-score": -0.0146}, {"sequence": "AGCCCCGC", "PBM E-score": 0.18}, {"sequence": "AAGTGGCA", "PBM E-score": -0.22}, {"sequence": "GATGCCCC", "PBM E-score": -0.017}, {"sequence": "CTGCCTCA", "PBM E-score": -0.234}, {"sequence": "GATTAGCA", "PBM E-score": -0.114}, {"sequence": "TCGCAACA", "PBM E-score": -0.0735}, {"sequence": "ATTGACCA", "PBM E-score": -0.196}, {"sequence": "CGCTAATA", "PBM E-score": 0.101}, {"sequence": "GTTAAACA", "PBM E-score": 0.0395}, {"sequence": "GCACCCCC", "PBM E-score": -0.0808}, {"sequence": "ACCGTGAT", "PBM E-score": -0.0148}, {"sequence": "ACCTGACG", "PBM E-score": -0.262}, {"sequence": "ACCGGGTG", "PBM E-score": 0.283}, {"sequence": "GGGGAACC", "PBM E-score": -0.0533}, {"sequence": "TGGTCACA", "PBM E-score": -0.0628}, {"sequence": "CTGACCAA", "PBM E-score": -0.185}, {"sequence": "AGCAACCT", "PBM E-score": -0.0958}, {"sequence": "AGCAGTAC", "PBM E-score": -0.15}, {"sequence": "ACCACGTC", "PBM E-score": -0.14}, {"sequence": "CTCTCGTA", "PBM E-score": -0.18}, {"sequence": "ACCACATC", "PBM E-score": 0.0312}, {"sequence": "ATGTTGAG", "PBM E-score": -0.0471}, {"sequence": "AACTTTGG", "PBM E-score": -0.168}, {"sequence": "GCAATTCC", "PBM E-score": 0.268}, {"sequence": "AACAGGTG", "PBM E-score": -0.24}, {"sequence": "CCAAATCG", "PBM E-score": -0.0345}, {"sequence": "ACAATACC", "PBM E-score": 0.0678}, {"sequence": "GGGGTACA", "PBM E-score": 0.108}, {"sequence": "CCTCAGAC", "PBM E-score": 0.139}, {"sequence": "ATATCTGC", "PBM E-score": -0.0708}, {"sequence": "ACGATAAA", "PBM E-score": -0.0639}, {"sequence": "ACGTCCCT", "PBM E-score": -0.288}, {"sequence": "AAAGTAGG", "PBM E-score": -0.0614}, {"sequence": "AGAGGCTG", "PBM E-score": -0.326}, {"sequence": "GTTGACTA", "PBM E-score": -0.205}, {"sequence": "ACATGTAA", "PBM E-score": -0.12}, {"sequence": "GCCTTGGA", "PBM E-score": -0.162}, {"sequence": "AACTCTCT", "PBM E-score": -0.0184}, {"sequence": "ACTGCCCG", "PBM E-score": 0.0339}, {"sequence": "CTCAAACA", "PBM E-score": -0.0563}, {"sequence": "TAGGCCCA", "PBM E-score": -0.313}, {"sequence": "ACGACAAC", "PBM E-score": 0.00648}, {"sequence": "ATGTGAAC", "PBM E-score": -0.144}, {"sequence": "AGCGCTTA", "PBM E-score": -0.0851}, {"sequence": "TAAATTAA", "PBM E-score": 0.0642}, {"sequence": "ATTGCACC", "PBM E-score": -0.0277}, {"sequence": "CCTTGATA", "PBM E-score": -0.159}, {"sequence": "ATATTAAT", "PBM E-score": 0.106}, {"sequence": "ATCTAGCA", "PBM E-score": -0.229}, {"sequence": "GGCGCTTA", "PBM E-score": 0.0332}, {"sequence": "CACCATTA", "PBM E-score": 0.0639}, {"sequence": "ACTGCTTA", "PBM E-score": -0.179}, {"sequence": "CATCTCGG", "PBM E-score": 0.359}, {"sequence": "ATATGACG", "PBM E-score": 0.0851}, {"sequence": "ACCACAGA", "PBM E-score": -0.19}, {"sequence": "AAATCGTC", "PBM E-score": 0.0262}, {"sequence": "AGAGCCAG", "PBM E-score": -0.312}, {"sequence": "AACCACCA", "PBM E-score": -0.157}, {"sequence": "AACGCTTC", "PBM E-score": -0.169}, {"sequence": "CTAAAGAA", "PBM E-score": -0.0978}, {"sequence": "ACCGCGGG", "PBM E-score": 0.299}, {"sequence": "AGCCGCAT", "PBM E-score": 0.105}, {"sequence": "CTCTAGAC", "PBM E-score": -0.273}, {"sequence": "ACATACTA", "PBM E-score": -0.0627}, {"sequence": "ATGAAAAG", "PBM E-score": -0.143}, {"sequence": "CAGAAATA", "PBM E-score": 0.0765}, {"sequence": "AACGGCAC", "PBM E-score": -0.00738}, {"sequence": "CTCCGAAG", "PBM E-score": 0.479}, {"sequence": "GAGCTCGA", "PBM E-score": -0.0304}, {"sequence": "ATGCCCTC", "PBM E-score": 0.00094}, {"sequence": "CTACAGAA", "PBM E-score": -0.124}, {"sequence": "CCTTTGTC", "PBM E-score": -0.0567}, {"sequence": "ATCATCGC", "PBM E-score": -0.07}, {"sequence": "CCCTTGTA", "PBM E-score": -0.129}, {"sequence": "TAGGCACA", "PBM E-score": -0.228}, {"sequence": "GTGATTTA", "PBM E-score": 0.108}, {"sequence": "TCCGGGAA", "PBM E-score": 0.419}, {"sequence": "CAGAGATC", "PBM E-score": -0.103}, {"sequence": "AATTTTTG", "PBM E-score": -0.187}, {"sequence": "AATCGTGG", "PBM E-score": -0.157}, {"sequence": "CCCTCACG", "PBM E-score": -0.114}, {"sequence": "GCATGCCC", "PBM E-score": 0.171}, {"sequence": "GGGTTGAC", "PBM E-score": 0.0106}, {"sequence": "AAAAGGAG", "PBM E-score": -0.0927}, {"sequence": "AGACGACG", "PBM E-score": -0.0891}, {"sequence": "ATCCAGTA", "PBM E-score": -0.111}, {"sequence": "AAGTCAAA", "PBM E-score": -0.0444}, {"sequence": "TGAGGACA", "PBM E-score": -0.364}, {"sequence": "AAGCACGG", "PBM E-score": 0.0376}, {"sequence": "GCTCGCAC", "PBM E-score": 0.0852}, {"sequence": "CGGCCGGA", "PBM E-score": 0.424}, {"sequence": "TCTAACCA", "PBM E-score": -0.147}, {"sequence": "CCTACAGC", "PBM E-score": -0.0683}, {"sequence": "AAACATTA", "PBM E-score": -0.158}, {"sequence": "CCCACAGG", "PBM E-score": -0.127}, {"sequence": "CCGCTTAG", "PBM E-score": 0.164}, {"sequence": "TACGCATA", "PBM E-score": -0.0249}, {"sequence": "CTTGTCGC", "PBM E-score": 0.03}, {"sequence": "TATCGAAA", "PBM E-score": -0.0101}, {"sequence": "ACTGAGAT", "PBM E-score": -0.265}, {"sequence": "AACTAAAG", "PBM E-score": -0.202}, {"sequence": "AGGGAACA", "PBM E-score": -0.0968}, {"sequence": "AAATATGG", "PBM E-score": -0.11}, {"sequence": "CTTGGGCC", "PBM E-score": -0.165}, {"sequence": "ATCAAGGG", "PBM E-score": -0.1}, {"sequence": "CAGGATTA", "PBM E-score": -0.0302}, {"sequence": "GTATCAAC", "PBM E-score": 0.0272}, {"sequence": "CGAGCACC", "PBM E-score": 0.0601}, {"sequence": "ACGACGAT", "PBM E-score": 0.0583}, {"sequence": "CAGAGATG", "PBM E-score": -0.246}, {"sequence": "CATCTTCA", "PBM E-score": -0.2}, {"sequence": "CCTGACTC", "PBM E-score": -0.101}, {"sequence": "AGACCTTC", "PBM E-score": -0.202}, {"sequence": "GCCCATCA", "PBM E-score": -0.238}, {"sequence": "AACTGAAA", "PBM E-score": -0.108}, {"sequence": "CCCAAGAC", "PBM E-score": -0.0804}, {"sequence": "CTCTCGCA", "PBM E-score": -0.218}, {"sequence": "GCGCCCGC", "PBM E-score": 0.116}, {"sequence": "GCGATCCC", "PBM E-score": 0.0902}, {"sequence": "TCAATTGA", "PBM E-score": 0.16}, {"sequence": "CCAGCGCG", "PBM E-score": -0.0217}, {"sequence": "CATCGGTC", "PBM E-score": 0.15}, {"sequence": "GCAAGAAC", "PBM E-score": -0.165}, {"sequence": "TATACGAA", "PBM E-score": 0.077}, {"sequence": "GGCCAACC", "PBM E-score": 0.00777}, {"sequence": "ACACTCCT", "PBM E-score": -0.0208}, {"sequence": "AATGATAA", "PBM E-score": 0.0641}, {"sequence": "AATTCCAC", "PBM E-score": 0.187}, {"sequence": "TCTGGCCA", "PBM E-score": -0.169}, {"sequence": "ATGGGGCG", "PBM E-score": 0.0403}, {"sequence": "ATCGACGC", "PBM E-score": -0.024}, {"sequence": "GCGATACC", "PBM E-score": -0.017}, {"sequence": "CCTTAGCA", "PBM E-score": -0.0796}, {"sequence": "AGAACTGA", "PBM E-score": -0.132}, {"sequence": "GGCCAGAC", "PBM E-score": 0.067}, {"sequence": "GGATTAAA", "PBM E-score": 0.236}, {"sequence": "GCGGTTGA", "PBM E-score": 0.0798}, {"sequence": "ATTTAGTA", "PBM E-score": 0.0902}, {"sequence": "AAACGTAT", "PBM E-score": -0.0445}, {"sequence": "ACTGGCAA", "PBM E-score": -0.119}, {"sequence": "ACCGTAAA", "PBM E-score": 0.0522}, {"sequence": "GCGCAAAA", "PBM E-score": 0.0206}, {"sequence": "AAATGTGG", "PBM E-score": 0.095}, {"sequence": "AAGTTCAT", "PBM E-score": 0.154}, {"sequence": "CACGTTGC", "PBM E-score": -0.194}, {"sequence": "AGGGAGTA", "PBM E-score": -0.114}, {"sequence": "GGACCCCC", "PBM E-score": 0.164}, {"sequence": "GAGCGCGC", "PBM E-score": 0.182}, {"sequence": "AGGCGGCC", "PBM E-score": 0.0798}, {"sequence": "AGGTCGAC", "PBM E-score": -0.181}, {"sequence": "ACTTGCAC", "PBM E-score": -0.0281}, {"sequence": "AGACCACC", "PBM E-score": -0.311}, {"sequence": "AGCGCGGA", "PBM E-score": 0.325}, {"sequence": "CTTTGCCC", "PBM E-score": -0.139}, {"sequence": "ACGCACTA", "PBM E-score": -0.166}, {"sequence": "CCCCTGAA", "PBM E-score": -0.144}, {"sequence": "ATGTATGG", "PBM E-score": -0.288}, {"sequence": "AGACCCCC", "PBM E-score": -0.114}, {"sequence": "ATCTATTA", "PBM E-score": -0.0154}, {"sequence": "CATCCAAG", "PBM E-score": -0.144}, {"sequence": "GCTAGTTA", "PBM E-score": -0.0866}, {"sequence": "CCTTCAAG", "PBM E-score": -0.169}, {"sequence": "AGCACGAT", "PBM E-score": -0.125}, {"sequence": "AAGGGTAG", "PBM E-score": -0.213}, {"sequence": "GCAGAATA", "PBM E-score": -0.00392}, {"sequence": "CAACTCAC", "PBM E-score": -0.234}, {"sequence": "ACGAGCCC", "PBM E-score": -0.122}, {"sequence": "ATTCTATG", "PBM E-score": -0.0868}]}]}
